# In the antibiotic and cytotoxicity screens of Wong et al. (2023):
# The other results are listed elsewhere or left out.
# System: HepG2
# Experiment: cytotoxicity call (relative viability < 0.9)
# Conditions: 10 µM
row,SMILES,cytotoxicity call
1,N=C(N)NCCCC[C@@H]1NC(=O)CCSSC[C@@H](C(N)=O)NC(=O)[C@@H]2CCCN2C(=O)[C@H](Cc2c[nH]c3ccccc23)NC(=O)[C@H](CC(=O)O)NC(=O)CNC1=O,inactive
2,C[C@@H]1CN([C@@H](C)CO)C(=O)c2cc(NS(C)(=O)=O)ccc2O[C@H]1CN(C)C(=O)Nc1ccc2c(c1)OCO2,inactive
3,COc1cccc(NC(=O)N2C[C@@H](O)COC[C@H]3O[C@H](CC(=O)NCCCN4CCOCC4)CC[C@@H]32)c1,inactive
4,COC(=O)c1c2oc(c1C(=O)OC)C(=O)N[C@@H](Cc1ccccc1)Cn1cc(nn1)[C@@H](Cc1ccccc1)NC(=O)N[C@@H](COC(=O)NCCCCCC(=O)NO)CC2,inactive
5,O=c1c(-c2ccc(O)cc2)coc2cc(O)cc(O)c12,inactive
6,C[C@@H]1CN([C@@H](C)CO)C(=O)c2c(c3ccccc3n2C)-c2ccccc2CO[C@H]1CN(C)Cc1ccc(O)cc1,inactive
7,COc1cccc(NC(=O)N[C@H]2C=C[C@@H](CC(=O)N3CCN(C)CC3)O[C@H]2CO)c1,inactive
8,C[C@@H]1CN([C@H](C)CO)C(=O)c2cc(NC(=O)Cn3cnnn3)ccc2O[C@H]1CN(C)S(C)(=O)=O,inactive
9,COCCOC(=O)N1C(=O)[C@@]2(c3cc(C#Cc4ccc(OC)cc4)ccc31)[C@H](c1ccccc1OCCO)N1[C@H](c3ccccc3)[C@H](c3ccccc3)OC(=O)[C@H]1[C@@H]2C(=O)N1CCN(c2ncccn2)CC1,inactive
10,CCOC(=O)c1cc2c(c(-c3cccc(-c4cccc(OC)c4)c3)n1)[C@@H](CCO)N(S(=O)C(C)(C)C)C2 (stereo not given in full),inactive
11,C[C@H]1CN([C@@H](C)CO)C(=O)c2cc(NS(=O)(=O)c3ccc(F)cc3)ccc2O[C@@H]1CN(C)S(=O)(=O)c1ccc(F)cc1,inactive
12,CN(C)[C@@H]1C(=O)[C@@H](C(N)=O)C(=O)[C@@]2(O)C(=O)[C@H]3C(=O)c4c(O)ccc(Cl)c4[C@@H](O)[C@H]3C[C@@H]12,inactive
13,Nc1nc(CO)cs1,inactive
14,COc1ccc(S(=O)(=O)N(C)C[C@H]2Oc3ccc(NC(=O)CCCN(C)C)cc3CC(=O)N([C@H](C)CO)C[C@H]2C)cc1,inactive
15,O=C(C[C@@H]1C[C@@H]2c3cc(NS(=O)(=O)c4ccc(F)cc4)ccc3O[C@@H]2[C@H](CO)O1)N1CCCCC1,inactive
16,C[C@@H]1CN([C@H](C)CO)C(=O)c2cc(NC(=O)Nc3ccc(C(F)(F)F)cc3)ccc2O[C@@H](C)CCCCO[C@H]1CN(C)S(=O)(=O)c1ccc(F)cc1,inactive
17,COc1cc(OC)c(CN(CC#CCOC(=O)NCCCCCC(=O)NO)S(=O)(=O)c2ccccc2[N+](=O)[O-])c(OC)c1,inactive
18,CCOC(=O)N(C)C[C@H]1OCc2cnnn2CCCC(=O)N([C@@H](C)CO)C[C@H]1C,inactive
19,C[C@H]1CCCCO[C@H](CN(C)C(=O)Nc2cccc3ccccc23)[C@@H](C)CN([C@@H](C)CO)C(=O)c2cc(NS(=O)(=O)c3ccc(F)cc3)ccc2O1,active
20,CC1(C)[C@H]2CC[C@@]1(C)/C(=N/O)C2,inactive

row,SMILES,cytotoxicity call
1,CN(C)CC(=O)N1CC(=O)N2[C@H](C1)[C@H](c1ccc(C#Cc3cccnc3)cc1)[C@@H]2CO,inactive
2,Cc1noc(C)c1NC(=O)Nc1ccc2c(c1)CC(=O)N([C@H](C)CO)C[C@@H](C)[C@H](CN(C)S(=O)(=O)c1cn(C)cn1)O2,inactive
3,C[C@@H]1CCCCO[C@@H](CN(C)C(=O)Nc2cccc3ccccc23)[C@H](C)CN([C@H](C)CO)C(=O)c2cc(NS(=O)(=O)c3ccc(Cl)cc3)ccc2O1,active
4,CN1C(=O)c2cc(NC(=O)c3cnccn3)ccc2OC[C@H]2O[C@H](CC(=O)NCC3CCCCC3)CC[C@@H]21,inactive
5,CCS(=O)(=O)Nc1ccc2c(c1)C(=O)N(C)C[C@@H](OC)[C@H](C)CN(C(=O)c1ccc3c(c1)OCO3)[C@H](C)CO2,inactive
6,NCCCCCNC(=O)[C@@H]1C[C@@H]2C(=O)NCC(=O)N2[C@@H]1c1cccc(OCCO)c1,inactive
7,C[C@@H]1CCCCO[C@H](CN(C)C(=O)NC2CCCCC2)[C@@H](C)CN([C@H](C)CO)C(=O)c2cc(NC(=O)c3ccncc3)ccc2O1,inactive
8,COc1ccc(cc1)CN1C[C@]2(CCN(CC2)C(=O)Nc2cccc(c2)F)c2c([nH]c3cc(ccc23)OC)[C@@H]1CO,inactive
9,COCC#Cc1ccc2c(c1)O[C@@H](CN(C)S(=O)(=O)c1ccc(F)cc1)[C@H](C)CN([C@@H](C)CO)S2(=O)=O,inactive
10,COc1ccccc1S(=O)(=O)N[C@H]1CC[C@@H](CCNC(=O)C2CCOCC2)O[C@@H]1CO,inactive
11,Cc1ccc(S(=O)(=O)Nc2ccc3c(c2)C(=O)N([C@H](C)CO)C[C@@H](C)[C@@H](CN(C)C(=O)CCC(F)(F)F)OCCCC[C@H](C)O3)cc1,inactive
12,COc1ccc(NC(=O)N(C)C[C@@H]2Oc3c(NC(=O)c4cnccn4)cccc3C(=O)N([C@H](C)CO)C[C@@H]2C)cc1,inactive
13,COc1ccc(NC(=O)Nc2ccc3c(c2)C(=O)N([C@H](C)CO)C[C@H](C)[C@H](CN(C)C(=O)NC(C)C)OCCCC[C@H](C)O3)cc1,inactive
14,Cc1noc(C)c1NC(=O)N(C)C[C@@H]1Oc2c(NC(=O)c3ccncc3)cccc2C(=O)N([C@H](C)CO)C[C@@H]1C,inactive
15,c1ccc(-c2nn[nH]n2)cc1,inactive
16,C[C@@H]1CN([C@H](C)CO)C(=O)Cc2cc(NC(=O)CCN3CCOCC3)ccc2O[C@H]1CN(C)Cc1ccc(C(=O)O)cc1,inactive
17,CCc1ccccc1C(=O)N1CCC[C@@H](Cn2cc(C(C)(C)N)nn2)C1,inactive
18,COCC#Cc1ccc2c(c1)O[C@@H](CN(C)S(=O)(=O)c1ccc(OC)cc1)[C@H](C)CN([C@H](C)CO)S2(=O)=O,inactive
19,CNC[C@H]1OCCCC[C@@H](C)Oc2ccc(NS(=O)(=O)c3cn(C)cn3)cc2C(=O)N([C@H](C)CO)C[C@@H]1C,inactive
20,Cc1noc(C)c1NC(=O)Nc1ccc2c(c1)CC(=O)N([C@H](C)CO)C[C@@H](C)[C@H](CN(C)S(C)(=O)=O)O2,inactive
